In paper PMC13083723 (Patterns, 2026):
Hit rate of the full screen: of about 5,400 compounds, about 190 (3.5%) showed an effect of 50% or more. Some of the results follow.

System: Vero-E6
Experiment: primary screen, phospholipidosis by LipidTOX staining; higher = more effect of the substance
Settings: 10 µM
Summary of the method: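 Single-concentration screen at 10 μM, with DMSO 0.1 v/v % and amiodarone 10 μM as controls. Read-out is LipidTOX Red phospholipid staining, which tolerates aldehyde fixation, in Vero-E6 cells.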

Structure (SMILES) | result_ITMP [%]
C=CCNC(N)=S | -1.6
CN(C)CCOC(C)(c1ccccc1)c1ccccn1 (stereo not shown) | -0.14
COc1cccc(N2CCN(C3=Nc4c(F)cccc4[C@H](CC(=O)O)N3c3cc(C(F)(F)F)ccc3OC)CC2)c1 | -1.88
CC(=O)OC[C@H](N)C(=O)O | -1.95
Oc1c(I)cc(Cl)c2cccnc12 | 1.15
COc1cc2c(cc1F)C(c1ccccc1Cl)=NC1=C(C)NNC1=N2 | -1.52
C[C@@H](O)[C@H]1C(=O)N2C(C(=O)O)=C(S[C@@H]3CN[C@H](CNS(N)(=O)=O)C3)[C@H](C)[C@H]12 | 0.95
CC(=O)NC1[C@@H](O)OC(CO)[C@@H](O)[C@H]1O (stereo partly shown) | -6.05
O=C(c1c(O)c2ccc(Cl)cc2[nH]c1=O)C1CC1 | -2.19
NC[C@H]1O[C@H](O[C@H]2[C@H](O)[C@@H](O[C@H]3O[C@H](CO)[C@@H](O)[C@H](N)[C@H]3O)[C@H](N)C[C@@H]2N)[C@H](N)[C@@H](O)[C@@H]1O | -3.11
CC(C)(C#N)c1cc(Cn2cncn2)cc(C(C)(C)C#N)c1 | -9.99
Cc1csc2c(N[C@@H](C)CN3CCN(S(=O)(=O)c4ccc(Cl)c(Cl)c4)CC3)ncnc12 | -1.09
CC(C)Cn1cnc2c1c(=O)n(C)c(=O)n2C | -1.16
CO[C@@H]1[C@H](N(C)C(=O)c2ccccc2)C[C@H]2O[C@]1(C)n1c3ccccc3c3c4c(c5c6ccccc6n2c5c31)C(=O)NC4 | 19.2
O=C(Nc1ccccc1C(=O)NC1CCCCNC1=O)c1cc2ccccc2s1 (stereo not shown) | -0.87
CCCCCCCCCCCCCCCc1cccc(OCC(=O)NCCO)c1 | 1.78
CSc1nc2ccc3nc(NC(=O)C(c4ccccc4)c4ccccc4)sc3c2s1 | 0.68
O=Cc1cn(Cc2ccc(Cl)cc2)c2ccccc12 | -1.97
COc1cccc(C(=O)CCN[C@@H](C)[C@H](O)c2ccccc2)c1 | 1.52
COc1cc(/C=C/C(N)=O)cc(OC)c1OC | -6.57

Structure (SMILES) | result_ITMP [%]
OC(CCCN1CCN(c2ncc(F)cn2)CC1)c1ccc(F)cc1 (stereo not shown) | -0.6
CN(C(=O)C(Cl)Cl)c1ccc(OC(=O)c2ccco2)cc1 | -2.6
COc1ccccc1OCC(O)CNC(C)C (stereo not shown) | -4.9
CC(C)OC(=O)N1CCC(Oc2ncnc3c2cnn3-c2ccc(S(C)(=O)=O)cc2F)CC1 | -2.41
Nc1ccn([C@H]2CC[C@@H](CO)O2)c(=O)n1 | -0.24
CNCc1ccc(-c2cc(-c3nc(-c4ccc(S(=O)(=O)C(C)C)cc4)cnc3N)on2)cc1 | 10.7
CCCCCCCCCCCCCCCCCCN(CCCCCCCCCCCCCCCCCC)CCCN(CCO)CCO | -5.34
CN1CCN(CCCN2c3ccccc3Sc3ccc(C(F)(F)F)cc32)CC1 | 81.3
Nc1ccn([C@@H]2C(F)=C(CO)[C@@H](O)[C@H]2O)c(=O)n1 | 0.33
COc1ccc(OC)c(C(O)CNC(=O)CN)c1 (stereo not shown) | -1.58
CC(S)C(=O)NCC(=O)O (stereo not shown) | 4.93
CO[C@H]1CC[C@@H](C(=O)c2ccc3nc4c(cc3c2)CCCO4)CC1 | -4.4
O=C(O)CCCc1ccc(N(CCCl)CCCl)cc1 | -1.19
NCC(CS(=O)(=O)O)c1ccc(Cl)cc1 (stereo not shown) | -0.91
CC(C)NCC(O)COc1ccccc1-n1cccc1 (stereo not shown) | 13.7
C=CC(=O)Nc1cc2c(Nc3ccc(F)c(Cl)c3)ncnc2cc1OCCCN1CCOCC1 | 4.03
O=C(NCc1ccccc1)c1csc(Nc2ccncn2)n1 | -3.53
C=C1C(=O)O[C@@H]2[C@H]3O[C@]3(C)CC/C=C(\C)CC[C@@H]12 | -3.04
OC(CNCC(O)C1CCc2cc(F)ccc2O1)C1CCc2cc(F)ccc2O1 (stereo not shown) | 47.9
COc1cc2c(cc1OC)CN(C(=O)/C=C/c1c(-c3ccccc3)n(C)c3ncccc13)CC2 | -5.24

Structure (SMILES) | result_ITMP [%]
C=CCN1CCc2nc(N)sc2CC1 | -2.1
COc1ccc2cc(-c3cc(-c4cc(Cl)cc(Cl)c4)nn3[C@@H](C)c3ccc(C(=O)NCCC(=O)O)cc3)ccc2c1 | -0.13
O=c1cc(N2CCOCC2)nc2c3ccccc3ccn12 | -0.21
CN1C(=O)C[C@@H](C(=O)N[C@@H](Cc2cnc[nH]2)C(=O)N2CCC[C@H]2C(N)=O)NC1=O | -1.67
NC(=O)c1cccc2cn(-c3ccc([C@@H]4CCCNC4)cc3)nc12 | -1.55
O=c1[nH]c2cc([N+](=O)[O-])c([N+](=O)[O-])cc2[nH]c1=O | -2.1
COC(=O)[C@@H]1C[C@H](OC(C)=O)C(=O)[C@H]2[C@@]1(C)CC[C@H]1C(=O)O[C@H](c3ccoc3)C[C@]21C | -1.17
CC(=O)NS(=O)(=O)c1ccc(NC(=O)c2ccccc2C(=O)O)cc1 | 6.65
O=C(c1ccccc1)C(O)c1ccccc1 (stereo not shown) | -2.84
CC[C@@H](C(N)=O)N1CCCC1=O | -0.24
N#Cc1cccc(-c2c[nH]c3ncnc(N4CCOCC4)c23)c1 | -1.43
O=C(CCc1ccc(O)cc1)c1c(O)cc(O)cc1O | -2.79
C1=C2CCCN[C@H]2[C@@H]2C[C@H]1[C@H]1CCCCN1C2 | 16.6
CCN(C(=O)c1c(O)c2c(Cl)cccc2n(C)c1=O)c1ccccc1 | -0.79
CCCC(=O)[O-] | -6.95
C1CCC(C(CC2CCCCN2)C2CCCCC2)CC1 (stereo not shown) | 38
C[C@@H]1CC[C@@]2(NC1)O[C@H]1C[C@H]3[C@@H]4CC=C5C[C@@H](O[C@@H]6O[C@H](CO)[C@@H](O[C@@H]7O[C@@H](C)[C@H](O)[C@@H](O)[C@H]7O)[C@H](O)[C@H]6O[C@@H]6O[C@@H](C)[C@H](O)[C@@H](O)[C@H]6O)CC[C@]5(C)[C@H]4CC[C@]3(C)[C@H]1[C@@H]2C | -0.25
C[C@@H]1CC[C@H]2[C@@H](C)C(O)O[C@@H]3O[C@@]4(C)CC[C@@H]1[C@]32OO4 (stereo partly shown) | 5.66
